The source of these data is article PMC4336329 (PLoS ONE, 2015).

Screen size: about 310,000 compounds; about 2,200 (0.71%) showed an effect of 50% or more. Effects have a minus sign here. The list shows a part of the results.

Sequence of human ether-à-go-go-related gene (hERG) potassium channel (Q12809 whole entry, looked up): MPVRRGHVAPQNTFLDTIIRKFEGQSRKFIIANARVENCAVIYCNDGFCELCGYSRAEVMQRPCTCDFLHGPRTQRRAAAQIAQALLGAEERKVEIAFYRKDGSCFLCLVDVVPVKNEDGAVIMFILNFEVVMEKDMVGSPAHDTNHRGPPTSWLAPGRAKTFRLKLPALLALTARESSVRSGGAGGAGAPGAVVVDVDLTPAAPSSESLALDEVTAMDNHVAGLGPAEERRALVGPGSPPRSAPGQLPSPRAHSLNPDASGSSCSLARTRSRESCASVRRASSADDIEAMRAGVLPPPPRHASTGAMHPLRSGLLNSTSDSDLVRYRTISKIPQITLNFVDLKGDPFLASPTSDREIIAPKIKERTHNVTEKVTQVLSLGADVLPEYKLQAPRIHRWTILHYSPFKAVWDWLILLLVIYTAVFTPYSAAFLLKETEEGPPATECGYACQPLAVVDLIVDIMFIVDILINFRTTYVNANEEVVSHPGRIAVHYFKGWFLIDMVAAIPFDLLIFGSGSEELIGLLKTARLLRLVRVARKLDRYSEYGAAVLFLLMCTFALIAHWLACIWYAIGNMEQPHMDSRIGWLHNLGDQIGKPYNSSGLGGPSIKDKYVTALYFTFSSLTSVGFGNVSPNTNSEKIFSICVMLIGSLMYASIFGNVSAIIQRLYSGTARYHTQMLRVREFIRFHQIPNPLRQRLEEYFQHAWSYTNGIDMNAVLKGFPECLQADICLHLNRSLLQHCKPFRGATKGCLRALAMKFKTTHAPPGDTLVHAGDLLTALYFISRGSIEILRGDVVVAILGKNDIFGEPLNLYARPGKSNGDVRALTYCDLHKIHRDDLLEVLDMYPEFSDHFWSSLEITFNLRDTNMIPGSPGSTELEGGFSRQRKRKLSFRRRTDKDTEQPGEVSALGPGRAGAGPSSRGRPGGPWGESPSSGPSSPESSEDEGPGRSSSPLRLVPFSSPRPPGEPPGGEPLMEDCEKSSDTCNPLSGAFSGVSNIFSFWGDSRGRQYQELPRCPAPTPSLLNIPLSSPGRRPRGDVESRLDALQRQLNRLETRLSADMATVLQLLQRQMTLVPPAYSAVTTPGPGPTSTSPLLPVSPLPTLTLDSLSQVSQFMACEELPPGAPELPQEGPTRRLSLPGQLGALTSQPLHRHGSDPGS

This test concerns the target human ether-à-go-go-related gene (hERG) potassium channel (human, UniProt Q12809). In words: primary screen, population patch clamp on CHO cells stably expressing hERG.
Take `CCOC(=O)c1ccc(NC(=O)NC2CC3CCC(C2)N3Cc2nnnn2Cc2ccco2)cc1` (stereo not shown): the “hERG current change (%, negative = inhibition) at 1uM” value worked out at 5.33%.

As to `c1ccc(CCC2CCCCN2Cc2nc(C3CC3)no2)cc1` (stereo not shown), the “hERG current change (%, negative = inhibition) at 1uM” value worked out at 10.9%. With `CC(C)=CC(=O)Nc1nnc(-c2ccccc2C)s1` the figure was 4.9%.

For the molecule `O=C(Cn1ccc2ccccc2c1=O)NCCC(=O)Nc1cccc(Cl)c1`, the “hERG current change (%, negative = inhibition) at 1uM” value is reported as 7.17%. As to `COc1cccc(CNC(=O)CCS(=O)(=O)c2cccc3nsnc23)c1`, the “hERG current change (%, negative = inhibition) at 1uM” value is recorded as 10%. In the case of `O=C(CSc1nc(-c2ccccc2Cl)ns1)c1ccc(Cl)cc1`, the “hERG current change (%, negative = inhibition) at 1uM” value amounted to 5.31%.

With `CCCCn1c(N)c(C(=O)OCC2CCCO2)c2nc3ccccc3nc21` (stereo not shown), the “hERG current change (%, negative = inhibition) at 1uM” value is on record as -16.2%.

Turning to `O=C(O)CCNc1nc(-c2ccccc2)c2cc(Br)ccc2n1`, the “hERG current change (%, negative = inhibition) at 1uM” value stood at 12.6%.

With `NC(=O)C1CCN(C(=O)/C=C/c2ccccc2[N+](=O)[O-])CC1`, the “hERG current change (%, negative = inhibition) at 1uM” value was found to be 13.1%. `CC1CCN(c2ccc(NC(=S)NC(=O)c3ccco3)cc2)CC1`: the “hERG current change (%, negative = inhibition) at 1uM” value came out at 6.74%. Consider `CCN(C/C=C/c1ccccc1OC)Cc1ccccc1`, for which the “hERG current change (%, negative = inhibition) at 1uM” value was -4.53%. The result for `O=S(=O)(NCc1cccs1)c1cccc(S(=O)(=O)N2CCCCC2)c1` reads 6.01%.

In the case of `O=c1c2[nH]c3ccc(F)cc3c2ncn1CCC1=CCCCC1`, the “hERG current change (%, negative = inhibition) at 1uM” value was 16%. In the case of `CC(=O)NC1C(O)OC(CO)C(O)C1O` (stereo not shown), the “hERG current change (%, negative = inhibition) at 1uM” value came out at 8.64%. With `CCN(CC)S(=O)(=O)c1ccc(NC(=O)c2c(-c3ccccc3)noc2C)cc1` the figure was 10%. `CCC1(C(=O)c2ccccc2)C(c2ccc([N+](=O)[O-])cc2)C1(C(=O)OC)C(=O)OC` (stereo not shown): the “hERG current change (%, negative = inhibition) at 1uM” value was 8.4%. As to `CC(=O)C[C@H]1c2ccccc2S(=O)(=O)N1C1CCCC1`, the “hERG current change (%, negative = inhibition) at 1uM” value was found to be 14.6%. With `CC(C)(C)c1ccc(-c2n[nH]c(=S)n2Cc2ccccc2)cc1`, the “hERG current change (%, negative = inhibition) at 1uM” value turned out to be 6.75%. For the molecule `Cc1c(C(=O)N(C)C2CCCCC2)sc2ncnc(N3CCN(c4ccccc4)CC3)c12`, the “hERG current change (%, negative = inhibition) at 1uM” value is given as -12.5%. `COC(=O)c1cc(NC(=O)Cn2c(=O)cnc3ccccc32)cc(C(=O)OC)c1`: the “hERG current change (%, negative = inhibition) at 1uM” value is listed as 11.9%. Regarding `CCO/N=C(/c1nonc1N)N1CCN(c2ccc([N+](=O)[O-])cc2)CC1`, the “hERG current change (%, negative = inhibition) at 1uM” value came to 4.88%. The result for `OCC1CCCN(C(=S)Nc2ccc(Nc3ccccc3)cc2)C1` (stereo not shown) reads 5.87%; that for `Cc1ccccc1C(=O)NCC(c1ccco1)N1CCc2ccccc2C1` (stereo not shown), -5.37%; that for `Cc1cc2c(sc3c(C)ccc(C)c32)c(C)n1.Cl`, 11.8%. With `C=CCn1c(-c2ccccc2)ccc(C#N)c1=O` the figure was -9.6%. With `NC(=O)C1CCN(Cc2nc3cc(Cl)ccc3c(=O)[nH]2)CC1`, the “hERG current change (%, negative = inhibition) at 1uM” value was 3.87%. As to `O=C(O)C1CCN(C(=O)c2ccccc2Cl)CC1`, the “hERG current change (%, negative = inhibition) at 1uM” value turned out to be 7.18%. With `O=C(Nc1ccc(S(=O)(=O)NCCc2ccccc2)cc1)c1ccncc1` the figure was 13.3%; with `Cc1nc(-c2ccccn2)nc(SCC(=O)c2ccc(F)cc2)c1Cl`, 12.3%; with `Cc1ccc(C(=O)NS(=O)(=O)c2ccccc2)cc1`, 2.57%. With `O=C(COc1ccccc1)N1CCN(CCN2C(=O)c3cccc4cccc(c34)C2=O)CC1`, the “hERG current change (%, negative = inhibition) at 1uM” value is recorded as 10.4%. The result for `CCn1c(=O)n(CC(=O)Nc2cc(OC)c(OC)c(OC)c2)c(=O)c2ccccc21` reads -1.15%; that for `Cc1ccc(/C=C2\SC(=S)N(C3CCS(=O)(=O)C3)C2=O)cc1` (stereo not shown), 0.713%; that for `O=C(O)CC1(CC(=O)NCc2ccc(Cl)cc2)CCCCC1`, 11.1%. For `CCN(Cc1ccccc1)C(=O)c1ccc(CS(=O)c2ccccc2C)o1` (stereo not shown), the “hERG current change (%, negative = inhibition) at 1uM” value was -11.9%.

`COc1ccc(OCC(=O)N/N=C(/C)Cc2ccccc2)cc1`: the “hERG current change (%, negative = inhibition) at 1uM” value was 4.14%. As for `CC(=O)Nc1ccccc1C(=O)C(=O)Nc1ccc(C)c(C)c1`, the “hERG current change (%, negative = inhibition) at 1uM” value stood at 14.1%. As for `CCCCCc1nnc(NC(=O)C2=COCCO2)s1`, the “hERG current change (%, negative = inhibition) at 1uM” value is 6.91%. On to `COc1ccc(CC(=O)O)cc1O`, for which the “hERG current change (%, negative = inhibition) at 1uM” value amounted to 11.6%.

`COc1cc(C(=O)OCc2cccc(S(=O)(=O)N3CCOCC3)c2)ccc1OCC(C)C`: the “hERG current change (%, negative = inhibition) at 1uM” value is 9.62%. With `COC(=O)c1c(NC(=O)/C=C/c2ccco2)sc2c1CCC2`, the “hERG current change (%, negative = inhibition) at 1uM” value came to 14.3%. Take `O=C(O)[C@H](Cc1ccccc1)N1C(=O)c2c(Cl)c(Cl)c(Cl)c(Cl)c2C1=O`: the “hERG current change (%, negative = inhibition) at 1uM” value is listed as 4.41%. As to `CCOC(=O)CSc1nc2sccc2c(=O)[nH]1`, the “hERG current change (%, negative = inhibition) at 1uM” value is 13%. Take `CCN(C(=O)COc1ccccc1[N+](=O)[O-])C1CCS(=O)(=O)C1` (stereo not shown): the “hERG current change (%, negative = inhibition) at 1uM” value is reported as 4.2%. The result for `O=c1[nH]c(CN2CCN(c3ccccc3)CC2)nc2ccccc12` reads 3.38%; that for `COc1cc(C)ccc1OCC(=O)OCC(=O)c1cc(C)n(CC2CCCO2)c1C` (stereo not shown), 3.56%. The result for `Cc1sc(NC(=O)C2CCCO2)c(C(N)=O)c1C` (stereo not shown) reads 14%; that for `COc1ccc(Cl)cc1NC(=O)CSc1nc(NS(=O)(=O)c2ccc(C)cc2)cc(=O)[nH]1`, 7.93%; that for `COc1ccc(C)cc1NS(=O)(=O)c1ccc(NC(=O)CN(c2cc([N+](=O)[O-])ccc2C)S(C)(=O)=O)cc1`, 1.18%. With `O=C1CCCN2N=C(SCC(=O)Nc3ccc([N+](=O)[O-])cc3)SC2=N1` the figure was 9.52%. Take `O=C(Nc1nnc(SCC(=O)N2CCCCC2)s1)c1ccccc1F`: the “hERG current change (%, negative = inhibition) at 1uM” value was determined as 12.6%. The result for `O=C(NCC1CCCO1)C1CC(=O)N(c2cccc(Cl)c2)C1` (stereo not shown) reads 4.72%. With `CCN(CC)CCNC(=O)Cc1c(C(=O)O)n(C)c2ccccc12` the figure was -0.322%; with `COc1ccc(Nc2nc(N)nc(CN3CCN(c4ccc(F)cc4)CC3)n2)cc1`, -19.3%. As for `Cc1cccc(NC(=O)c2ccccc2O)c1C`, the “hERG current change (%, negative = inhibition) at 1uM” value was found to be 7.24%.

On to `Cc1ccc(NC(=O)c2ccc(=O)n(CC(=O)Nc3ccccc3)n2)cc1`, for which the “hERG current change (%, negative = inhibition) at 1uM” value is listed as 14%.

On to `CN1CCN(C(=O)/C(=C\c2ccccc2)c2ccccc2)CC1`, for which the “hERG current change (%, negative = inhibition) at 1uM” value is -43.4%. With `CSc1ccc(/C=C/C(=O)c2ccc(NC(=O)Cc3ccccc3)cc2)cc1` the figure was -10.4%.
